The source of these data is paper PMC4336329 (PLoS ONE, 2015).

The whole screen tested about 310,000 compounds, of which about 14,000 (4.5%) showed an effect of 50% or more. Effects have a minus sign here. Some of the results follow.
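Also: peak tail current of the secondary pulse compared with the same well before compound.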

human ether-à-go-go-related gene (hERG) potassium channel, sequence (Q12809 whole entry, looked up): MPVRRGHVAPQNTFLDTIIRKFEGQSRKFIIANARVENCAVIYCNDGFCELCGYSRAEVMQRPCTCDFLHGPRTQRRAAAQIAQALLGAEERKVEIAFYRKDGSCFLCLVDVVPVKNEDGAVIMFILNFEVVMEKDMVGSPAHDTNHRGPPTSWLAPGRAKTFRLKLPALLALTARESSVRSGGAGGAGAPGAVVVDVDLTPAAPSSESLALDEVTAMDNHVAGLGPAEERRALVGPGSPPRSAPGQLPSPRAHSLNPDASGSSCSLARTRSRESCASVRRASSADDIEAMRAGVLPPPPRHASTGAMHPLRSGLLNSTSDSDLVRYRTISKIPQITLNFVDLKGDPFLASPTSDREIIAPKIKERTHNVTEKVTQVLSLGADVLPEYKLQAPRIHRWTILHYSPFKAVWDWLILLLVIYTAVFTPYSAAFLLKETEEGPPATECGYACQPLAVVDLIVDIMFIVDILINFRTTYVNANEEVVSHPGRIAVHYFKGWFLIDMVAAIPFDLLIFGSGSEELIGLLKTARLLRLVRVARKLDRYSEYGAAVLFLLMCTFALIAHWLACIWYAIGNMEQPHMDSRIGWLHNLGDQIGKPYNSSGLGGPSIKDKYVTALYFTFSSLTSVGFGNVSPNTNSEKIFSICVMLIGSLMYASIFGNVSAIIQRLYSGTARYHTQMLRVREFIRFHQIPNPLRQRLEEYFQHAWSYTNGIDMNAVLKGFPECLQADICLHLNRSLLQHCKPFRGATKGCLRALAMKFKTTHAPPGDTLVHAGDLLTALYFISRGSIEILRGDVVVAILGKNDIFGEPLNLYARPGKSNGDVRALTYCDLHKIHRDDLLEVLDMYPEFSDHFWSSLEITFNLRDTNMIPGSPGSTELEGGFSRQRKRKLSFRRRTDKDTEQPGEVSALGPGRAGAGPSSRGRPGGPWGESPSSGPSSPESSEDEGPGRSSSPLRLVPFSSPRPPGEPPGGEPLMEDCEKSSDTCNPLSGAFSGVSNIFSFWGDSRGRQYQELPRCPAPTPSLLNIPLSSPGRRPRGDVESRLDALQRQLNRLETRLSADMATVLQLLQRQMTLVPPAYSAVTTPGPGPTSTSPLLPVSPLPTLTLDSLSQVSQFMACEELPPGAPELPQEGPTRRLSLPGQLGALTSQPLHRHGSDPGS

The assay concerns the target human ether-à-go-go-related gene (hERG) potassium channel (human, UniProt Q12809). Briefly: primary screen, population patch clamp on CHO cells stably expressing hERG.
For the compound `O=C(Nc1ccccc1C(=O)N1CCOCC1)c1noc2c1CCCC2`, the “hERG current change (%, negative = inhibition) at 10uM” value was 0.607%. On to `COc1ccccc1CCNC(=O)c1csc2c1CCCC2`, for which the “hERG current change (%, negative = inhibition) at 10uM” value came to 14%. Consider `COc1cccc(-n2c(C)n[nH]c2=O)c1`, for which the “hERG current change (%, negative = inhibition) at 10uM” value is recorded as 14.1%. As to `CN1N=C(/C=C/c2ccccc2)CCC1=O`, the “hERG current change (%, negative = inhibition) at 10uM” value was 9.97%. For `Cc1c(C)n(-c2ccc(Cl)cc2)c2ncnc(N)c12` the value was 0.714%. For `N#Cc1c(-c2ccccc2)cc(-c2ccccc2)nc1SCC(=O)NCC(=O)O` the value was -1.33%; for `Cc1ccsc1S(=O)(=O)N1CCC(CO)(CC2CCCCO2)CC1` (stereo not drawn), 3.2%. For `CCOC(=O)N1CCN(C(=O)C2CCCN(S(=O)(=O)c3ccc(C)cc3)C2)CC1` (stereo not drawn) the value was -24.4%; for `O=C1C(=Cc2ccco2)C(=O)c2ccccc21`, 8.17%.

`Cc1ccsc1/C=N/n1c(-c2ccncc2)n[nH]c1=S`: the “hERG current change (%, negative = inhibition) at 10uM” value is 23.5%. Take `Cc1cc(C)n2c(SCC(=O)NC3CCCCC3C)nnc2n1` (stereo not drawn): the “hERG current change (%, negative = inhibition) at 10uM” value is given as 29.5%.

In the case of `c1ccc(CSc2ccc3nnc(-c4ccccn4)n3n2)cc1`, the “hERG current change (%, negative = inhibition) at 10uM” value was -69.5%. Turning to `COc1ccc(Cc2nc3ccccc3[nH]c2=O)cc1`, the “hERG current change (%, negative = inhibition) at 10uM” value was found to be 13.8%. The value for `COC(=O)COc1ccc(S(=O)(=O)Nc2ccc(NC(C)=O)cc2)cc1` was 19.5%. For `CCC(CC)C(=O)N1CC(=O)Nc2ccc(F)cc2C1c1ccc(F)cc1` (stereo not drawn) the value was -27.8%; for `CCC(=O)c1ccccc1OCCN1C(=O)NC(C)(C)C1=O`, 0.954%; for `CCn1c(SCC(=O)Nc2cc(C)ccc2C)nc2c(c1=O)SC(C)C2` (stereo not drawn), -19.9%. For the compound `CC(C)c1ccc(OCC(=O)N2CCN(C)CC2)c(Br)c1`, the “hERG current change (%, negative = inhibition) at 10uM” value was -15.9%. Take `COCCNC(=S)N1CCN(S(C)(=O)=O)CC1`: the “hERG current change (%, negative = inhibition) at 10uM” value came out at 29.9%. For `CC(=O)N1c2ccc(S(=O)(=O)NCC3CCC(C(=O)Nc4ccc(C)cn4)CC3)cc2CC1C` (stereo not drawn) the value was 9.79%; for `C[C@@H](C(=O)N1CCNCC1)n1cc(CCCN=C(N)N)nn1.Cl`, 10.3%. The value for `CC(O)[C@H]1CNC(=O)C(=O)N1CC1CCCCC1` (stereo partly drawn) was 21.7%; that for `CCN(c1ccccc1)S(=O)(=O)c1ccc(C(=O)Nc2cccc(C)n2)cc1` was -11.7%. For the compound `O=C(CSc1nc2ccccc2c(=O)n1-c1ccccc1Cl)NC1CCS(=O)(=O)C1` (stereo not drawn), the “hERG current change (%, negative = inhibition) at 10uM” value is reported as 6.55%. `CCCOc1ccc(N2CC(C(=O)Nc3ccccn3)CC2=O)cc1` (stereo not drawn): the “hERG current change (%, negative = inhibition) at 10uM” value was -12.5%. As for `COC(=O)C(C(=O)NCC1CCCO1)C1CCCC1` (stereo not drawn), the “hERG current change (%, negative = inhibition) at 10uM” value was found to be 21.6%. Turning to `COc1ccc(C(CNC(=O)CN2C(=O)NC3(CC(C)CC(C)(C)C3)C2=O)N2CCOCC2)cc1` (stereo not drawn), the “hERG current change (%, negative = inhibition) at 10uM” value is recorded as -0.983%.
